This note sets out measurements from US6248520, “Nucleic acid molecules encoding nuclear hormone receptor coactivators and uses thereof” (The Rockefeller University, dated 2001).

The target in the assay is human thyroid hormone receptor α (TRα-1), intact (human, UniProt P10827-2). As to the kind of experiment: GST pull-down, 1.5 µg immobilised GST, 35S-labelled TRα. Here is the method: Proteins were synthesized and labeled with ^35S-methionine in a coupled transcription-translation system (TNT kit; Promega). 1.5 μg of immobilized GST-fusion protein and 2 μl of ^35S-labeled input proteins were used in GST pull-down assays. For coimmunoprecipitation (7), 2 μl of anti-FLAG M2 affinity gel (Kodak) and 3 μl of ^35S-labeled input proteins were used. For Far Western analyses, 500 ng of purified TR-TRAP complex was resolved by SDS-PAGE and transferred onto a nitrocellulose membrane. The blots were probed with in vitro translated, ^35S-labeled human TRα-1 or TRα-1 C-terminus (residues 122–410) in the presence and absence of 10^-7 M T_3.
To test which TRAPs interact with TRα, the entire complement of TRAPs (in the natural TR-TRAP complex) were initially probed by a Far Western analysis. Intact TRα and a C-terminal fragment (TRα-C, residues 122–410) containing the ligand-binding and AF-2 domains interacted with TRAP220, but not with the other TRAPs, in a ligand (T_3)-dependent manner (FIG. 7A). This interaction was confirmed by co-immunoprecipitation of in vitro translated, ^35S-labeled recombinant proteins. […] To analyze domains in TRAP220 involved in receptor interactions, regions containing the first LXXLL motif (TRAP220/1, residues 405–644) and the second LXXLL motif (TRAP220/2, residues 622–701) were expressed as GST fusion proteins. […]

B1: GST alone (other)
chain: not shown
As to B1, the binding result is “no binding”.
